# Test results: patent publication US5493008A, “Two non-contiguous regions contribute to nidogen binding to a single EGF-like motif of the laminin γ1 chain” (The University Of Virginia Patent Foundation, priority 1994, dated 1996)
# Where two headings read alike, the source gives them in different places. Not every detail of the peptide structures is certain; ends, links or a residue may be inferred. At least one compound was matched to its structure with a doubt left. Where a SMILES comes first, the peptide text is derived from it. Bridges are numbered along the chain shown (N, C = ends). Where no end group is shown, it is not given here. Side-chain parts run from the residue outwards. [ ]: non-standard residue; d: D form. Nle = CCCC[C@H](N)C(=O)O
# Molecular target: T1, nidogen (Mus musculus, UniProt P10493)
# T1 sequence (P10493 29-1245): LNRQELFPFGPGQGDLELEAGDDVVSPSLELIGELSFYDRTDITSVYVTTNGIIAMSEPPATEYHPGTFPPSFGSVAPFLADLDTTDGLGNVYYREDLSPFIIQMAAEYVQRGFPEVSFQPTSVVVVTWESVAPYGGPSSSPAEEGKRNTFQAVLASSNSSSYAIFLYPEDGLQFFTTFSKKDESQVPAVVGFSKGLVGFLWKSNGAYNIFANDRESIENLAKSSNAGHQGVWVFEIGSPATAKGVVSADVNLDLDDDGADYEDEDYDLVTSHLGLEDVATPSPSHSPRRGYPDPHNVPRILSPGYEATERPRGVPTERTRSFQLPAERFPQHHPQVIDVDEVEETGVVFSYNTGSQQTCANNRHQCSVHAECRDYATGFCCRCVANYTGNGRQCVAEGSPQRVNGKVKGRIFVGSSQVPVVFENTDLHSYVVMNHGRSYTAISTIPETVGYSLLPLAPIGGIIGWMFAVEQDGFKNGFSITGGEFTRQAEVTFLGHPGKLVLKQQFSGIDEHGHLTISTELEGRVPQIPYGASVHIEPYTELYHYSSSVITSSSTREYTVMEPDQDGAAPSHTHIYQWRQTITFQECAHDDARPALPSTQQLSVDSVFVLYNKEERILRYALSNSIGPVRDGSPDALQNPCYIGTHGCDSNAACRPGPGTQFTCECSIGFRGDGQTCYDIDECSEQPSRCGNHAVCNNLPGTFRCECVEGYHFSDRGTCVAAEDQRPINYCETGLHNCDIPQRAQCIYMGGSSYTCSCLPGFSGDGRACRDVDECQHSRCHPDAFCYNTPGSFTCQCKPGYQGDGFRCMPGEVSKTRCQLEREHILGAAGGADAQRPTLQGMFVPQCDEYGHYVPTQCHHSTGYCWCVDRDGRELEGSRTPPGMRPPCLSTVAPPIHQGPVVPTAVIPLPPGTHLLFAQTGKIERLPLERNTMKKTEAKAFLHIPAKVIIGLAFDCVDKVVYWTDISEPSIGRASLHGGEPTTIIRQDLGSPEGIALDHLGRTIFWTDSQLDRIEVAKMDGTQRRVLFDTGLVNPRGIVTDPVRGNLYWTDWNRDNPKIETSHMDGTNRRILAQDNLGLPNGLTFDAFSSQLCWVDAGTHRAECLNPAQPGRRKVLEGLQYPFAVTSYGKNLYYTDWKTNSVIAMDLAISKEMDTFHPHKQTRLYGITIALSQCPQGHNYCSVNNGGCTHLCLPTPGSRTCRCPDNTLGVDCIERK
# Experiment: Radioligand competition assay: inhibition of 125I-laminin fragment P1 binding to nidogen
# Settings: for inhibitory activity in words: laminin-nidogen binding competition; for reduction in activity of heptapeptide variant: relative to heptapeptide NIDPNAV
# Method: A radioligand competition assay was used for measurement of relative binding affinities (Mann K. et al. (1988), Eur. J. Biochem., 178, 71-80; Fox, J. W. et al. (1991), EMBO J., 10, 3137-3146). A fixed concentration of recombinant nidogen (0.2 nM) was incubated overnight at 4° C. with inhibitors at varying concentrations, followed by the addition of ^125 I-labeled laminin fragment P1 (0.01 nM; 10,000-20,000 c.p.m.) for the same incubation period. Bound and non-bound fragment P1 was then separated by antibodies against nidogen. Competitor concentrations causing 50% inhibition (IC50) were determined from dose-response profiles. […] IC50 values compared from different assays were normalized to a single fragment P1 value.
# [1] = Table II, synthetic loops of EGF-like repeat 4 and smaller synthetic and proteolytic fragments, read-out: IC50 (inhibitory capacity)
Molecule,inhibitory activity in words,reduction in activity of heptapeptide variant,also measured
"CCCC[C@H](NC(=O)CC[C@@H]1NC(=O)CNC(=O)[C@H]([C@@H](C)O)NC(=O)[C@H](CC(C)C)NC(=O)[C@H](CCCNC(=N)N)NC(=O)[C@H](CC(N)=O)NC(=O)[C@@H]2CSSC[C@H](NC(=O)[C@@H]3CCCN3)C(=O)N[C@@H](CCC(N)=O)C(=O)N[C@@H](CSSC[C@@H](C(=O)N[C@@H](CC(C)C)C(=O)N[C@@H](CCCC)C(=O)OC)NC1=O)C(=O)N[C@@H](CC(N)=O)C(=O)N[C@@H](CC(=O)N[C@@H](CCCC)C(=O)OC)C(=O)N[C@@H](CC(N)=O)C(=O)N[C@@H]([C@@H](C)CC)C(=O)N[C@@H](CC(=O)N[C@@H](CCCC)C(=O)OC)C(=O)N1CCC[C@H]1C(=O)N[C@@H](CC(N)=O)C(=O)N[C@@H](C)C(=O)N[C@@H](C(C)C)C(=O)NCC(=O)N[C@@H](CC(N)=O)C(=O)N2)C(=O)OC [loop a,b, amidsied] (H-PCQCND([Nle-OMe])NID([Nle-OMe])PNAVGNCNRLTGE([Nle-OMe])CL[Nle]-OMe; disulfide 2-16, 4-23; N-terminus and C-terminus assumed)",,,IC50 [1]: > 5.4 µM
"CC[C@H](C)[C@H](NC(=O)[C@H](CC(N)=O)NC(=O)[C@H](CC(=O)O)NC(=O)[C@H](CC(N)=O)NC(=O)[C@H](CS)NC(=O)[C@H](CCC(N)=O)NC(=O)[C@H](CS)NC(=O)[C@@H]1CCCN1)C(=O)N[C@@H](CC(=O)O)C(=O)N1CCC[C@H]1C(=O)N[C@@H](CC(N)=O)C(=O)N[C@@H](C)C(=O)N[C@H](C(=O)NCC(=O)N[C@@H](CC(N)=O)C(=O)N[C@@H](CS)C(=O)N[C@@H](CC(N)=O)C(=O)N[C@@H](CCCNC(=N)N)C(=O)N[C@@H](CC(C)C)C(=O)N[C@H](C(=O)NCC(=O)N[C@@H](CCC(=O)O)C(=O)N[C@@H](CS)C(=O)N[C@@H](CC(C)C)C(=O)O)[C@@H](C)O)C(C)C [loop a,b, non-oxidized] (H-PCQCNDNIDPNAVGNCNRLTGECL-OH; N-terminus and C-terminus assumed)",,,IC50 [1]: 0.4 µM; IC50 (read-out: IC50): 0.4 µM
"CC[C@H](C)[C@@H]1NC(=O)[C@H](CC(N)=O)NC(=O)[C@H](CC(=O)O)NC(=O)[C@H](CC(N)=O)NC(=O)[C@@H]2CSSC[C@@H](C(=O)N[C@@H](CC(C)C)C(=O)O)NC(=O)[C@H](CCC(=O)O)NC(=O)CNC(=O)[C@H]([C@@H](C)O)NC(=O)[C@H](CC(C)C)NC(=O)[C@H](CCCNC(=N)N)NC(=O)[C@H](CC(N)=O)NC(=O)[C@H](CSSC[C@H](NC(=O)[C@@H]3CCCN3)C(=O)N[C@@H](CCC(N)=O)C(=O)N2)NC(=O)[C@H](CC(N)=O)NC(=O)CNC(=O)[C@H](C(C)C)NC(=O)[C@H](C)NC(=O)[C@H](CC(N)=O)NC(=O)[C@@H]2CCCN2C(=O)[C@H](CC(=O)O)NC1=O [loop a,b, oxidized] (HELM PEPTIDE1{P.C.Q.C.N.D.N.I.D.P.N.A.V.G.N.C.N.R.L.T.G.E.C.L}$PEPTIDE1,PEPTIDE1,2:R3-16:R3|PEPTIDE1,PEPTIDE1,4:R3-23:R3$$$V2.0)",,,"IC50 higher / less active than fragment P1 (relative to laminin fragment P1): 5,000 fold"
"CC[C@H](C)[C@@H]1NC(=O)[C@@H](NC(=O)[C@@H](N)CCCCN)CSSC[C@@H](C(=O)N[C@@H](CC(=O)O)C(=O)O)NC(=O)[C@H](Cc2ccc(O)cc2)NC(=O)[C@H](Cc2ccccc2)NC(=O)CNC(=O)[C@H](C)NC(=O)[C@H]([C@@H](C)O)NC(=O)[C@H](CC(N)=O)NC(=O)[C@H](Cc2ccc(O)cc2)NC1=O [loop c, oxidized] (HELM PEPTIDE1{K.C.I.Y.N.T.A.G.F.Y.C.D}$PEPTIDE1,PEPTIDE1,2:R3-11:R3$$$V2.0)",too low to measure,,inhibitory activity in words (listed as oxidized loop c): No inhibitory activity
"LTGECL [T2, LTGECL]",low activity,,
NIDPNVV [NIDPNVV],,16 fold,
NIDQNAV [NIDQNAV],,3 fold,
NINPNAV [NINPNAV],,100 fold,
NVDPNAV [NVDPNAV],only a marginal effect on affinity,,
